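Tested at 5 concentrations; 48 h exposure; 96-well plates; endpoints linearly interpolated, else capped at highest concentration. GI50 is the concentration that inhibits growth by half.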 Certain results were filed several times, with different values. Only these are listed. The source may hold further records. A record mostly stands for its own series of concentrations, which the source does not state; some values may only mark the edge of a range.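 TGI: total growth inhibition.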
Columns and labels:
Test in all cases: NCI-60 cell line screen, 48 h
[1] = system: HCC-2998 colon
[2] = system: HT29 colon
[3] = system: OVCAR-8 ovarian
[4] = system: MOLT-4 leukemia
[5] = system: EKVX NSCLC
[6] = system: SNB-19 CNS
[7] = system: HCT-116 colon
[8] = system: RXF 393 renal
[9] = system: A549 NSCLC
[10] = system: UACC-257 melanoma
[11] = system: IGROV1 ovarian
[12] = system: SK-MEL-5 melanoma
[13] = system: OVCAR-3 ovarian
[14] = system: RPMI-8226 leukemia
[15] = system: SF-268 CNS
[16] = system: NCI-H460 lung
[17] = system: PC-3 prostate
[18] = system: NCI-H226 lung
[19] = system: U251 CNS
[20] = system: K-562 leukemia
[21] = system: COLO 205 colon
[22] = system: SN12C renal
[23] = system: SK-MEL-2 melanoma
[24] = system: NCI-H23 lung
[25] = system: SF-295 CNS
[26] = system: HOP-62 NSCLC
[27] = system: KM12 colon
[28] = system: ACHN renal
[29] = system: CAKI-1 renal
[30] = system: 786-0 renal

How did the GI50 [1] turn out when `O=C(Nc1cccc(-n2ccc3c(NC(=O)c4ccccc4)nccc32)c1)c1ccc(Cl)c(C(F)(F)F)c1` was run?
Its GI50 is 12.4 µM [1 test] and 193 nM [mean of 2 tests].

What about the TGI [1] of the same compound?
The TGI was 70.7 µM [1 test] and 2.23 µM [mean of 2 tests].

And the GI50 [2]?
The GI50 was 2.33 µM [1 test] and 142 nM [mean of 2 tests].

What about the TGI [2] of the same compound?
The TGI was 28.8 µM [1 test] and 499 nM [mean of 2 tests].

What about the GI50 [3] of the same compound?
The GI50 was 3.37 µM [1 test] and 175 nM [mean of 2 tests].

What about the TGI [3] of the same compound?
Its TGI is 33.9 µM [1 test] and 990 nM [mean of 2 tests].

And the GI50 [4]?
Its GI50 is 3.95 µM [1 test] and 332 nM [mean of 2 tests].

What about the TGI [4] of the same compound?
The TGI was 98.1 µM [1 test] and 9.49 µM [mean of 2 tests].

What about the GI50 [5] of the same compound?
The GI50 was > 100 µM [1 test] and 619 nM [mean of 2 tests].

What about the GI50 [6] of the same compound?
The GI50 was 16.8 µM [1 test] and 185 nM [mean of 2 tests].

And the TGI [6]?
The TGI was > 100 µM [1 test] and 4.06 µM [mean of 2 tests].

And the TGI [7]?
Its TGI is 18.6 µM [1 test] and 708 nM [mean of 2 tests].

What about the GI50 [8] of the same compound?
Its GI50 is 32.8 µM [1 test] and 83.2 nM [mean of 2 tests].

And the TGI [8]?
The TGI was > 100 µM [1 test] and 322 nM [mean of 2 tests].

What about the GI50 [9] of the same compound?
The GI50 was 2.11 µM [1 test] and 173 nM [mean of 2 tests].

What about the TGI [9] of the same compound?
The TGI was 21.5 µM [1 test] and 921 nM [mean of 2 tests].

What about the TGI [10] of the same compound?
Its TGI is > 100 µM [1 test] and 4.81 µM [mean of 2 tests].

And the GI50 [11]?
The GI50 was 64.6 µM [1 test] and 196 nM [mean of 2 tests].

And the TGI [11]?
The TGI was > 100 µM [1 test] and 4.79 µM [mean of 2 tests].

And the GI50 [12]?
The GI50 was 7.78 µM [1 test] and 70.6 nM [mean of 2 tests].

And the TGI [12]?
The TGI was > 100 µM [1 test] and 206 nM [mean of 2 tests].

What about the GI50 [13] of the same compound?
The GI50 was 19 µM [1 test] and 98.1 nM [mean of 2 tests].

And the TGI [13]?
The TGI was > 100 µM [1 test] and 331 nM [mean of 2 tests].

What about the GI50 [14] of the same compound?
Its GI50 is 1.8 µM [1 test] and 178 nM [mean of 2 tests].

What about the TGI [14] of the same compound?
Its TGI is 42.2 µM [1 test] and 1.57 µM [mean of 2 tests].

And the GI50 [15]?
Its GI50 is 13.3 µM [1 test] and 189 nM [mean of 2 tests].

And the TGI [15]?
Its TGI is > 100 µM [1 test] and 1.87 µM [mean of 2 tests].

What about the TGI [16] of the same compound?
Its TGI is 15.6 µM [1 test] and 476 nM [mean of 2 tests].

What about the TGI [17] of the same compound?
Its TGI is > 100 µM [1 test] and 2.99 µM [mean of 2 tests].

And the GI50 [18]?
Its GI50 is > 100 µM [1 test] and 310 nM [mean of 2 tests].

And the TGI [19]?
The TGI was 19 µM [1 test] and 752 nM [mean of 2 tests].

And the GI50 [20]?
Its GI50 is 2.4 µM [1 test] and 97.3 nM [mean of 2 tests].

What about the GI50 [21] of the same compound?
The GI50 was 16.2 µM [1 test] and 146 nM [mean of 2 tests].

What about the TGI [21] of the same compound?
The TGI was > 100 µM [1 test] and 448 nM [mean of 2 tests].

What about the GI50 [22] of the same compound?
The GI50 was 10.1 µM [1 test] and 226 nM [mean of 2 tests].

And the TGI [22]?
The TGI was > 100 µM [1 test] and 1.15 µM [mean of 2 tests].

And the GI50 [23]?
The GI50 was 195 nM and 40.7 µM.

What about the TGI [23] of the same compound?
The TGI was 2.28 µM and > 100 µM.

What about the GI50 [24] of the same compound?
Its GI50 is 42.6 µM [1 test] and 220 nM [mean of 2 tests].

And the TGI [24]?
Its TGI is > 100 µM [1 test] and 1.93 µM [mean of 2 tests].

And the GI50 [25]?
Its GI50 is 3.81 µM [1 test] and 99.3 nM [mean of 2 tests].

What about the TGI [25] of the same compound?
Its TGI is > 100 µM [1 test] and 561 nM [mean of 2 tests].

And the GI50 [26]?
Its GI50 is 11.6 µM [1 test] and 276 nM [mean of 2 tests].

What about the TGI [26] of the same compound?
Its TGI is > 100 µM [1 test] and 1.26 µM [mean of 2 tests].

What about the GI50 [27] of the same compound?
Its GI50 is 5.59 µM [1 test] and 103 nM [mean of 2 tests].

What about the TGI [27] of the same compound?
Its TGI is 36.8 µM [1 test] and 765 nM [mean of 2 tests].

What about the GI50 [28] of the same compound?
Its GI50 is 8.8 µM [1 test] and 144 nM [mean of 2 tests].

And the TGI [28]?
The TGI was > 100 µM [1 test] and 2.1 µM [mean of 2 tests].

What about the GI50 [29] of the same compound?
Its GI50 is 3.99 µM [1 test] and 106 nM [mean of 2 tests].

And the TGI [29]?
Its TGI is > 100 µM [1 test] and 1.19 µM [mean of 2 tests].

What about the GI50 [30] of the same compound?
The GI50 was 235 nM and 6.88 µM.

And the TGI [30]?
The TGI was 967 nM and > 100 µM.

Source: PubChem BioAssay (NCI)
